Each block holds one binder with its values, some of them ahead of it.
Assays:
Experiment in all cases: ELISA, 1 ug/ml
[1] = molecular target: T1, Human TfR-AVI-His (control) (human, UniProt P02786)
T1 construct: control protein; also called Avi-His-tagged human TfR; human transferrin receptor
Procedure: (§1) To determine binding retention of reformatted 2+1 anti-CD98hc bispecific antibodies by ELISA, high binding ELISA plates (Thermo Fisher) were coated with streptavidin (1 μg/ml, Thermo Fisher) overnight at 4° C. Plates were then washed three times with phosphate buffered saline with 0.05% tween-20 (PBST) and incubated with block buffer (PBS+1% BSA, 1 h, room temperature). Plates were washed three times again with PBST and incubated with biotinylated human, cyno, and mouse CD98hc and an irrelevant antigen, human transferrin receptor (1 μg/ml, 1 h, room temperature). Plates were washed three times again with PBST and incubated with anti-CD98hc antibodies (1 μg/ml, 1 h, room temperature). Plates were washed three times again with PBST and incubated with a secondary detection antibody, anti-human horseradish peroxidase conjugated antibody (1:5000 dilution, 30 min, room temperature). Plates were washed three times one last time and incubated with TMB-ELISA Substrate Solution (Thermo Fisher) and then quenched with H₂SO₄. Anti-CD98hc binding was then analyzed by quantifying optical density at 450 nm (OD₄₅₀) using the SpectraMax M5 (Molecular Devices). The binding characteristics of the various 2+1 anti-CD98hc bispecific antibodies to CD98hc (human, cyno, mouse) and control human TfR are summarized below in Table 16, shown as fold-change relative to isotype hIgG.

[2] = molecular target: T2, huCD98hc ECD Avi-His (human, UniProt P08195 105-529)
T2 construct: biotinylated on the Avi tag where captured on streptavidin; also called Human CD98-AVI-His; Human CD98hc-AVI-His
T2 sequence: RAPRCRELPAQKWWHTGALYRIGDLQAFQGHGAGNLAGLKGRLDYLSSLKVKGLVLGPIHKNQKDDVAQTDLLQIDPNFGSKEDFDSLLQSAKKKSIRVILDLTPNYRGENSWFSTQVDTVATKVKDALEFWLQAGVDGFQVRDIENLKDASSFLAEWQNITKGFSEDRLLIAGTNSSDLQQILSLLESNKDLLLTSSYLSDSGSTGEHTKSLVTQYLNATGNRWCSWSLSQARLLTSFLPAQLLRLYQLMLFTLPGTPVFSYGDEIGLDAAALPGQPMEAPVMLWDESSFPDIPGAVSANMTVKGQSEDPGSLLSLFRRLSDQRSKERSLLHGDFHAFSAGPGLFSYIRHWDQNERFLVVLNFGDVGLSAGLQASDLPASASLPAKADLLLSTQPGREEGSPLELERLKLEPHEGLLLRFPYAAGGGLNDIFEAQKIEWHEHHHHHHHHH
Procedure: as §1

[3] = molecular target: T3, Cyno CD98hc ECD Avi-His (cynomolgus macaque, UniProt P08195 105-529 (human entry))
T3 construct: biotinylated on the Avi tag where captured on streptavidin; also called Cyno CD98-AVI-His; Cyno CD98hc-AVI-His
T3 chain: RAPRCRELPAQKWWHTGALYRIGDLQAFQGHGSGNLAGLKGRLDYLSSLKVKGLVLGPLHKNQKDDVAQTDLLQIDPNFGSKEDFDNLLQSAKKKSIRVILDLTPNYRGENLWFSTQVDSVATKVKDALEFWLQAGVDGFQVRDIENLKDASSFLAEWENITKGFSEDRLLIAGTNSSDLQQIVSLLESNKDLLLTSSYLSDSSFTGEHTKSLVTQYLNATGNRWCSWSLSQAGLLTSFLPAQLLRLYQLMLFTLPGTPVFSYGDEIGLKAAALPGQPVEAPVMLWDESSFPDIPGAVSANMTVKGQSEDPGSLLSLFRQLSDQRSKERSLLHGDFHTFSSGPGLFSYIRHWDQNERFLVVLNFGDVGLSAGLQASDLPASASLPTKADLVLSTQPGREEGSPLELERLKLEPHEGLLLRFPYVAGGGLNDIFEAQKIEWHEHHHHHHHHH
Procedure: as §1

[4] = molecular target: T4, muCD98hc ECD Avi-His (mouse, UniProt P10852 100-526)
T4 construct: biotinylated on the Avi tag where captured on streptavidin; also called Mouse CD98-AVI-His; Mouse CD98hc-AVI-His
T4 sequence: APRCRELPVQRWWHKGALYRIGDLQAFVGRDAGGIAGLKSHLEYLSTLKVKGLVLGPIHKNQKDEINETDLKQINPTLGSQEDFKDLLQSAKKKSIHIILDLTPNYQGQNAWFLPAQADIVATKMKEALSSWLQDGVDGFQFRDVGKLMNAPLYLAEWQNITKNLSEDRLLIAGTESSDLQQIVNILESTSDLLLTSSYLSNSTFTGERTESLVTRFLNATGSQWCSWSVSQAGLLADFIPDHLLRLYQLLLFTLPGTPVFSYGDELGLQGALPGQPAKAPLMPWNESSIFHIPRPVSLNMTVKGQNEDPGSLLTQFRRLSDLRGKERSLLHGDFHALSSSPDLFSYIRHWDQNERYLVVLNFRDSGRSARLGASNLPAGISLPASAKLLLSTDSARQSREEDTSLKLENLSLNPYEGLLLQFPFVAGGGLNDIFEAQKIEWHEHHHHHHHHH
Procedure: as §1

T1 sequence (P02786 89-760 limits assumed): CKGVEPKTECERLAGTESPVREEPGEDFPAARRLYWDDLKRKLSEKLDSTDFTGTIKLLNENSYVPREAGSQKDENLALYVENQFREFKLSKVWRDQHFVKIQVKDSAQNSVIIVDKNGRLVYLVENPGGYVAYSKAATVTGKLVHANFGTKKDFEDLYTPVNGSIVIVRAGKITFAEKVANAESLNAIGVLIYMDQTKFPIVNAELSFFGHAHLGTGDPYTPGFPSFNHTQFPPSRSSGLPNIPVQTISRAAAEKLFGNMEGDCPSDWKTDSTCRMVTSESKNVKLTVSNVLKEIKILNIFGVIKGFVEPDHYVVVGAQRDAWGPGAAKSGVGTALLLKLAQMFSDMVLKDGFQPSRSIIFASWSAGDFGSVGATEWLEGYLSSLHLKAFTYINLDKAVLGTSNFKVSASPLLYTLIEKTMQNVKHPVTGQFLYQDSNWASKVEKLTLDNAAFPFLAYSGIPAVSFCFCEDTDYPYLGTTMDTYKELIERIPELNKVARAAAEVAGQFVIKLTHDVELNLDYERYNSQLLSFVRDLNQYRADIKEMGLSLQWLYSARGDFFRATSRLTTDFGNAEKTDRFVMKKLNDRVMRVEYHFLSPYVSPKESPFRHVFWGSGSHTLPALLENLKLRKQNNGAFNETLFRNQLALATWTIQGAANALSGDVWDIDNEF

ELISA fold-change relative to isotype hIgG [4]: 2.6
ELISA fold-change relative to isotype hIgG [2]: 26
ELISA fold-change relative to isotype hIgG [3]: 23.4
B2: CD98hc.04.062 (2+1 bispecific antibody) (bispecific antibody)
heavy 1: EVRLLESGGGLVQPGGSLRLSCAASGFTFSNYAMGWVRQAPGKGLEWVSAISGSGGSTYYADSVKGRFTTSRDDSKNALYLQMNSLRAEDTAVYYCARGGPGWYAADVWGQGTTVTVSSASTKGPSVFPLAPSSKSTSGGTAALGCLVKDYFPEPVTVSWNSGALTSGVHTFPAVLQSSGLYSLSSVVTVPSSSLGTQTYICNVNHKPSNTKVDKKV[here human IgG1 Fc with changes without letters]GGGGSGGGGSGGGGSEVQLVESGGDLVKPGGSLKLSCTASRFAFSTYDMSWVRQTPEKRLEWVAYISSGGGSTYFPDTVKGRFTISRDNAKNTLYLQMSSLKSEDTAMYYCARQDGHYPWFPYWGQGTLVTVSAGGSEGKSSGSGSESKSTGGSDIVMSQSPSSLAVSVGEKVTMSCKSSQSLLYSGNQKTYLAWYQQKPGQSPKPLIYWASTRESGIPDRFTGSGSGTDFTLTISSVKAEDLAVYYCQQYYSYPPTFGAGTKLELK
heavy 2: EVRLLESGGGLVQPGGSLRLSCAASGFTFSNYAMGWVRQAPGKGLEWVSAISGSGGSTYYADSVKGRFTTSRDDSKNALYLQMNSLRAEDTAVYYCARGGPGWYAADVWGQGTTVTVSS[here human IgG1 constant region with changes without letters]
light: DIQMTQSPSSLSASVGDRVTITCRASQSISSYLNWYQQKPGKAPKLLIYAASSLQSGVPSRFSGSGSGTDFTLTISSLQPEDFATYYCQQADLPAFAFGGGTKVEIKRTVAAPSVFIFPPSDEQLKSGTASVVCLLNNFYPREAKVQWKVDNALQSGNSQESVTEQDSKDSTYSLSSTLTLSKADYEKHKVYACEVTHQGLSSPVTKSFNRGEC

ELISA fold-change relative to isotype hIgG [4]: 1.2
ELISA fold-change relative to isotype hIgG [2]: 27.7
ELISA fold-change relative to isotype hIgG [3]: 29.2
B3: CD98hc.04.010 (2+1 bispecific antibody) (bispecific antibody)
heavy 1: EVRLLESGGGLVQPGGSLRLSCAASGFTFSNYAMGWVRQAPGKGLEWVSAISGSGGSTYYADSVKGRFTTSRDDSKNALYLQMNSLRAEDTAVYYCARGGPGWYAADVWGQGTTVTVSSASTKGPSVFPLAPSSKSTSGGTAALGCLVKDYFPEPVTVSWNSGALTSGVHTFPAVLQSSGLYSLSSVVTVPSSSLGTQTYICNVNHKPSNTKVDKKV[here human IgG1 Fc with changes without letters]GGGGSGGGGSGGGGSQVQLQQSGAELMKPGASVKISCKATGYTFSTYWIEWVKQRPGHGLEWIGEILPGSGTTTYNEKFKGKATFTADTSSNTAYMQLSSLTSEDSAVYYCARRTVYYRYEGIDYWGQGTTLTVSSGGSEGKSSGSGSESKSTGGSQIVLTQSPAIMSASPGEKVTITCSASSSVSYMFWFQQRPGTSPKLWIYTTSNLASGVPARFSGSGSGTSYSLTISRMEAEDAATYYCQQKNNYPFTFGSGTKLEIK
heavy 2: EVRLLESGGGLVQPGGSLRLSCAASGFTFSNYAMGWVRQAPGKGLEWVSAISGSGGSTYYADSVKGRFTTSRDDSKNALYLQMNSLRAEDTAVYYCARGGPGWYAADVWGQGTTVTVSS[here human IgG1 constant region with changes without letters]
light: B2 light

ELISA fold-change relative to isotype hIgG [4]: 3.9
ELISA fold-change relative to isotype hIgG [2]: 26.7
B4: CD98hc.04.058 (2+1 bispecific antibody) (bispecific antibody)
heavy 1: EVRLLESGGGLVQPGGSLRLSCAASGFTFSNYAMGWVRQAPGKGLEWVSAISGSGGSTYYADSVKGRFTTSRDDSKNALYLQMNSLRAEDTAVYYCARGGPGWYAADVWGQGTTVTVSSASTKGPSVFPLAPSSKSTSGGTAALGCLVKDYFPEPVTVSWNSGALTSGVHTFPAVLQSSGLYSLSSVVTVPSSSLGTQTYICNVNHKPSNTKVDKKV[here human IgG1 Fc with changes without letters]GGGGSGGGGSGGGGSQVQLQQSGAELVRPGVSVKISCKASGYTFTDHTMHWVKQSHARSLEWIGVISTYFGDASYNPKFKGKATMTVDKSSNTAYMELARLTSEDSAIYYCARVGGRLRLGYYFDYWGQGTTLTVSSGGSEGKSSGSGSESKSTGGSNIMMTQSPSSLAVSAGEKVTMNCKSSQTVLYSSNQKNYLAWYQQKPGQSPKLLIYWASTRESGVPDRFTGSGSGTDFTLTISSVQVEDLAVYYCHQYLSSYTFGGGTKLEIK
heavy 2: EVRLLESGGGLVQPGGSLRLSCAASGFTFSNYAMGWVRQAPGKGLEWVSAISGSGGSTYYADSVKGRFTTSRDDSKNALYLQMNSLRAEDTAVYYCARGGPGWYAADVWGQGTTVTVSS[here human IgG1 constant region with changes without letters]
light: B2 light

More lines, now with the values behind:

B1: CD98hc.03.004 (2+1 bispecific antibody) (bispecific antibody)
heavy 1: EVRLLESGGGLVQPGGSLRLSCAASGFTFSNYAMGWVRQAPGKGLEWVSAISGSGGSTYYADSVKGRFTTSRDDSKNALYLQMNSLRAEDTAVYYCARGGPGWYAADVWGQGTTVTVSSASTKGPSVFPLAPSSKSTSGGTAALGCLVKDYFPEPVTVSWNSGALTSGVHTFPAVLQSSGLYSLSSVVTVPSSSLGTQTYICNVNHKPSNTKVDKKV[here human IgG1 Fc with changes without letters]GGGGSGGGGSGGGGSDVQLQESGPGLVKPSQSLSLTCTVTGYSITNNYAWNWIRRFPGNKLEWMAYISYSGYTSYNPSLKSRISITRDTSKNQFFLQLNSVTTEDTATYYCTGYFYYYGGGSFDYWGQGTTLTVSSGGSEGKSSGSGSESKSTGGSQAVVTQESALTTSPGETVTLTCRSSTGAVTTSNFANWVQEKPDHLFTGLIRGSNNRAPGVPARFSGSLIGDKAALTITGARTEDEAIYFCALWYSDHWVFGGGTKLTVL
heavy 2: EVRLLESGGGLVQPGGSLRLSCAASGFTFSNYAMGWVRQAPGKGLEWVSAISGSGGSTYYADSVKGRFTTSRDDSKNALYLQMNSLRAEDTAVYYCARGGPGWYAADVWGQGTTVTVSS[here human IgG1 constant region with changes without letters]
light: B2 light
ELISA fold-change relative to isotype hIgG [1]: 1.5
ELISA fold-change relative to isotype hIgG [2]: 28.5
ELISA fold-change relative to isotype hIgG [3]: 25.1

B5: CD98hc.04.006 (2+1 bispecific antibody) (bispecific antibody)
heavy 1: EVRLLESGGGLVQPGGSLRLSCAASGFTFSNYAMGWVRQAPGKGLEWVSAISGSGGSTYYADSVKGRFTTSRDDSKNALYLQMNSLRAEDTAVYYCARGGPGWYAADVWGQGTTVTVSSASTKGPSVFPLAPSSKSTSGGTAALGCLVKDYFPEPVTVSWNSGALTSGVHTFPAVLQSSGLYSLSSVVTVPSSSLGTQTYICNVNHKPSNTKVDKKV[here human IgG1 Fc with changes without letters]GGGGSGGGGSGGGGSEVNLVESGGDLVQPGGSLRLSCATSGFTFTDYFMSWVRQPPGKALEWLGFIRNKAYGYTTEYSASVKGRFTISRDNSQSIFYLQMNTLRLEDSATYYCARGPFISTAPFAYWGQGTLVTVSAGGSEGKSSGSGSESKSTGGSDIVMSQSPSSLAVSVGETVTMSCKSSQSLLYSSNQKNYLAWYQQKPGQSPKLLIYWGSTRESGVPDRFTGSGSGTDFTLTISSVKAEDLAVYYCQHYYGYPWTFGGGTKLEIK
heavy 2: EVRLLESGGGLVQPGGSLRLSCAASGFTFSNYAMGWVRQAPGKGLEWVSAISGSGGSTYYADSVKGRFTTSRDDSKNALYLQMNSLRAEDTAVYYCARGGPGWYAADVWGQGTTVTVSS[here human IgG1 constant region with changes without letters]
light: B2 light
ELISA fold-change relative to isotype hIgG [4]: 2.3
ELISA fold-change relative to isotype hIgG [2]: 27.9
ELISA fold-change relative to isotype hIgG [3]: 24.4
